Reference: US20220073613A1, “ACTIVATABLE MASKED ANTI-CTLA4 BINDING PROTEINS” (Xilio Development, Inc., priority 2018, published 2022)

Experiments:
[1] = In vivo cleavage of masked antibodies in plasma of MC38 tumor-bearing mice, Western blot; design: species or system C57BL/6J mice; settings: for activation in vivo (cleavage in plasma): MC38-bearing mice, 200 μg i.p., days 2, 4, 7
Procedure: MC38 cells (1×10^6) were injected subcutaneously into seven-eight week old female C57BL/6J mice subcutaneously. On day 0, the mice were randomized based on tumor volume measurements and injected intraperitoneally with 200 μg of Antibody 2 constructs. Blood was collected via RO sinus on days two and four and processed with LiHep for plasma isolation. On day seven, blood was collected via cardiac puncture and process with LiHep for plasma isolation. Plasma was aliquoted and stored at −80 C until Western blot analysis. Standard samples where the masked antibody was treated in the presence or absence of protease in vitro were included as positive controls. For Western blot analysis, plasma samples were diluted in PBS, then in Laemmli Sample Buffer and βME. Samples were heated at 95° C. then loaded on a Criterion TGX Stain-free Precast gel. SDS-PAGE was performed at 200 V for forty-two minutes. Protein was transferred to nitrocellulose membrane and blocked in 1×TBS with 1% Casein Blocker for one hour at room temperature shaking. The membrane was probed with HRP-conjugated Rb mAb to human Kappa Light Chain [clone EPR5367-8], diluted 1:10,000 in Casein Blocker, overnight at 4° C. shaking. The membrane was washed three times with PBS-Tween and developed with SuperSignal ELISA Pico Chemiluminescent Substrate. Raw data was analyzed with ImageLab software.
(§1) In vivo experiment was performed in two cohorts across two weeks, with Antibody 2-14 included in both cohorts. Antibodies that were tested include Antibody 2-14, Antibody 2-15, Antibody 2-16, Antibody 2-17, Antibody 2-18, Antibody 2-19, Antibody 2-20, and Antibody 2-21. Antibody 2-15 includes a cleavable peptide sequence that is non-cleavable, for use as a negative control.

[2] = In vivo cleavage of masked antibodies in plasma of healthy mice, Western blot; design: species or system C57BL/6J mice; settings: 200 μg i.p., days 2, 4, 7
Procedure: Healthy, non-tumor bearing, seven-eight week old female C57BL/6J mice were injected intraperitoneally on day 0 with 200 μg of masked forms of Antibody 2. On days two and four, blood was collected via RO sinus and processed with LiHep for plasma isolation. On day seven, blood was collected via cardiac puncture and processed with LiHep for plasma isolation. Plasma was aliquoted and stored at −80° C. until Western blot analysis. Standard samples where the masked antibody was treated in the presence or absence of protease in vitro were included as positive controls. For Western blot analysis, plasma samples were diluted in PBS, then in Laemmli Sample Buffer and βME. Samples were heated at 95° C. then loaded on a Criterion TGX Stain-free Precast gel. SDS-PAGE was performed at 200 V for forty-two minutes. Protein was transferred to nitrocellulose membrane and blocked in 1×TBS with 1% Casein Blocker for one hour at room temperature shaking. The membrane was probed with HRP-conjugated Rb mAb to human Kappa Light Chain [clone EPR5367-8], diluted 1:10,000 in Casein Blocker, overnight at 4° C. shaking. The membrane was washed three times with PBS-Tween and developed with SuperSignal ELISA Pico Chemiluminescent Substrate. Raw data was analyzed with ImageLab software. Activation percentage was calculated as follows: the intensity of the activated band/(intensity of the activated band+intensity of the masked non-activated band)*100%.
as §1

[3] = test system: Ki67+ cells in CD4+ cells; assay: Pharmacodynamic effects in cynomolgus monkeys; settings: cynomolgus monkey, in vivo
Procedure: In a first set of experiments, cynomolgus monkeys were administered ipilimumab, Antibody 2-6, Antibody 2-10, or an isotype control, and pharmacodynamic (PD) effects were assessed by measuring the percentage (%) of Ki67+ cells in CD4+ cells. In a second set of experiments, cynomolgus monkeys were administered Antibody 2-6, Antibody 2-10, Antibody 2-14, Antibody 2-16, or an isotype control, and pharmacodynamic effects were assessed by measuring the percentage (%) of Ki67+ cells in CD4+ cells.

B1: Antibody 2-15: masked Antibody 2-6: mask CPGKGLPSC, non-cleavable peptide GSGGSG; SEQ ID NO: 423 and 421; negative control (protein)
light: ACPGKGLPSCGGGSSGGSGGSGGSGSGGEIVLTQSPDFQSVTPKEKVTITCSANSALSYMYWYQQKPDQSPKLWVHGTSNLASGVPSRFSGSGSGTDFTLTINSLEAEDAATYYCHHWSNTQWTFGGGTKVEIKRTVAAPSVFIFPPSDEQLKSGTASVVCLLNNFYPREAKVQWKVDNALQSGNSQESVTEQDSKDSTYSLSSTLTLSKADYEKHKVYACEVTHQGLSSPVTKSFNRGEC
heavy: QVQLVQSGAEVKKPGSSVKVSCKASGYTFTNYFMNWVRQAPGQGLEWMGRVDPEQGRADYAEKFKKRVTITADKSTSTAYMELSSLRSEDTAVYYCARRAMDNYGFAYWGQGTLVTVSS[human IgG1 constant region with changes left out here]
In the case of B1, the “activation in vivo (cleavage in plasma)” value [1] is reported as “not detected” and the “activation in vivo (cleavage in plasma)” value [2] is reported as “not detected”.

B2: Antibody 2-10: masked Antibody 2-6: mask CPFPALELC, non-cleavable peptide GSGGSG; SEQ ID NO: 427 and 421; negative control (protein)
light: ACPFPALELCGGGSSGGSGGSGGSGSGGEIVLTQSPDFQSVTPKEKVTITCSANSALSYMYWYQQKPDQSPKLWVHGTSNLASGVPSRFSGSGSGTDFTLTINSLEAEDAATYYCHHWSNTQWTFGGGTKVEIKRTVAAPSVFIFPPSDEQLKSGTASVVCLLNNFYPREAKVQWKVDNALQSGNSQESVTEQDSKDSTYSLSSTLTLSKADYEKHKVYACEVTHQGLSSPVTKSFNRGEC
heavy: QVQLVQSGAEVKKPGSSVKVSCKASGYTFTNYFMNWVRQAPGQGLEWMGRVDPEQGRADYAEKFKKRVTITADKSTSTAYMELSSLRSEDTAVYYCARRAMDNYGFAYWGQGTLVTVSS[human IgG1 constant region with changes left out here]
With B2 the “peripheral PD effects, percentage (%) of Ki67+ cells in CD4+ cells” value (“peripheral PD effects, percentage (%)” below) [3] was “blocks the PD effects associated with Antibody 2-6”.

B3: Antibody 2-16: masked Antibody 2-6: mask CPFPALELC, cleavable peptide DSGGFMLT; SEQ ID NO: 422 and 421 (protein)
light: ACPFPALELCSSGGSGPDSGGFMLTSGGEIVLTQSPDFQSVTPKEKVTITCSANSALSYMYWYQQKPDQSPKLWVHGTSNLASGVPSRFSGSGSGTDFTLTINSLEAEDAATYYCHHWSNTQWTFGGGTKVEIKRTVAAPSVFIFPPSDEQLKSGTASVVCLLNNFYPREAKVQWKVDNALQSGNSQESVTEQDSKDSTYSLSSTLTLSKADYEKHKVYACEVTHQGLSSPVTKSFNRGEC
heavy: QVQLVQSGAEVKKPGSSVKVSCKASGYTFTNYFMNWVRQAPGQGLEWMGRVDPEQGRADYAEKFKKRVTITADKSTSTAYMELSSLRSEDTAVYYCARRAMDNYGFAYWGQGTLVTVSS[human IgG1 constant region with changes left out here]
For B3, the “peripheral PD effects, percentage (%)” value [3] was “reduced PD effects as compared to the unmasked parental Antibody 2-6”, the “activation in vivo (cleavage in plasma)” value [1] was “not detected” and the “activation in vivo (cleavage in plasma)” value [2] was “not detected”.

B4: Antibody 2-14: masked Antibody 2-6: mask CPGKGLPSC, cleavable peptide VPLSLY; SEQ ID NO: 358 and 421 (protein)
light: ACPGKGLPSCGGGSSGGSGVPLSLYSGGEIVLTQSPDFQSVTPKEKVTITCSANSALSYMYWYQQKPDQSPKLWVHGTSNLASGVPSRFSGSGSGTDFTLTINSLEAEDAATYYCHHWSNTQWTFGGGTKVEIKRTVAAPSVFIFPPSDEQLKSGTASVVCLLNNFYPREAKVQWKVDNALQSGNSQESVTEQDSKDSTYSLSSTLTLSKADYEKHKVYACEVTHQGLSSPVTKSFNRGEC
heavy: QVQLVQSGAEVKKPGSSVKVSCKASGYTFTNYFMNWVRQAPGQGLEWMGRVDPEQGRADYAEKFKKRVTITADKSTSTAYMELSSLRSEDTAVYYCARRAMDNYGFAYWGQGTLVTVSS[human IgG1 constant region with changes left out here]
With B4 the “peripheral PD effects, percentage (%)” value [3] was “reduced PD effects as compared to the unmasked parental Antibody 2-6”, the “activation percentage in MC38-bearing mice as compared to healthy non-tumor-bearing mice” value ([1]; 2-way ANOVA) was “significantly greater” and the “activation in vivo (cleavage in plasma)” value [1] was “activated in vivo”. For the same molecule, the “activation in vivo (cleavage in plasma)” value [2] was “activated in vivo”.
